Experimental data as given in the supplement of paper PMC3334620.
Over roughly 33,000 sequences, “E-score (-0.5 to 0.5)” has its median near -0.035; the highest 2% begin near 0.34. The list shows a part of the results.

Each sequence was assayed against T1, Mot3 (UniProt P54785) (assay: PBM E-score (8-mer binding enrichment) (E-score (-0.5 to 0.5)); higher = stronger / more preferred TF binding; most listed sequences are background and not binding sites). Settings: protein concentration: 200 nM; construct: GST-full length.
T1 sequence: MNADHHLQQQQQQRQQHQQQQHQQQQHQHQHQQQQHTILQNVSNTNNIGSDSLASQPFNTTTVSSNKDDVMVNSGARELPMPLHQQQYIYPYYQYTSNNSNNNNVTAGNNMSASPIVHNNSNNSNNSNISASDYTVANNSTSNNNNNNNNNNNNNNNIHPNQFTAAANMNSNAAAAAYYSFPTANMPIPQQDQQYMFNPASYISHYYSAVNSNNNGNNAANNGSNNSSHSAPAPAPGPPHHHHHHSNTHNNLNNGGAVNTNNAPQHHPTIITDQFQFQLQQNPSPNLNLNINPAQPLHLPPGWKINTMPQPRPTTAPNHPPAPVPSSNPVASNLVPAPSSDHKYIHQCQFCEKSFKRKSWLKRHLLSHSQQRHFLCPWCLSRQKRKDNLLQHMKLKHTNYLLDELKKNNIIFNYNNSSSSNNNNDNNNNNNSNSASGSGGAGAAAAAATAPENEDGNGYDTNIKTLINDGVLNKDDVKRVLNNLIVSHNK
Summary of the method: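 For each ungapped eight-base word taken together with its reverse complement, the Universal PBM Analysis Suite assigned an E-score. Binding data came from GST-tagged yeast transcription factors, applied at about 100-200 nM, on universal all-10-mer Agilent arrays made double-stranded by primer extension. Fluorescent anti-GST marked bound protein, and scans were normalised with masliner.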

Sequence | PBM E-score
CAGTTGTC | -0.112
GGACTGCA | -0.204
GTATCAGA | 0.0523
CTTCGAAC | 0.0235
TATAGGAA | 0.412
GCCACTCA | -0.285
GACTCACC | -0.38
AATCGAAC | -0.0103
GAGTGGTA | -0.171
GTCCCCAC | -0.356
ATGTCAAT | 0.339
AGCCTGCG | 0.115
ATCCCATC | -0.163
GTTACAAC | 0.221
ATCTTCGG | -0.0679
AAACTAAT | 0.0986
ATTTGGGA | -0.159
GCCTATCC | -0.0377
CCCTAGAG | -0.231
ATCAAAGA | 0.0406
GATTCGGC | -0.133
TAACGACA | 0.166
GTAGCTCA | -0.157
ATTGCAAT | 0.0553
ATCGACAA | -0.0469

Sequence | PBM E-score
AGTACCCC | -0.124
AGGATGGA | -0.273
ATATTAGG | 0.106
AGCATGTC | 0.218
GGATAACA | 0.218
ACGTTCAA | 0.108
GGTAAAAC | 0.142
ACAATCCG | -0.0793
CACGTATC | 0.184
CAGGGTCA | -0.0468
ATGGAGGA | 0.0248
AGGGCGCA | -0.113
CTGAGCGA | -0.127
GAGGCCTA | -0.22
AAATCCAA | -0.0552
ATAACTGG | -0.219
GAAGGAGA | 0.127
CAGAGAGA | -0.238
CTAGCAAG | 0.0259
GGAGAACA | -0.0362
CAAACCTG | -0.121
AAATCGCA | -0.215
AGAAATTC | -0.159
AGCTAAGG | 0.0695
ACCACCAC | -0.153

Sequence | PBM E-score
CGGGGTAG | -0.248
AATTATTC | 0.17
CAGTGCCG | -0.173
GCAGATTA | -0.143
CACAACGA | 0.0814
CAAGGTGG | -0.0692
CGGTTTCA | -0.148
CGCTGCCC | -0.186
CCTTGTGA | 0.0551
AAAAGGCC | -0.0159
AGAGAGAA | 0.025
CTGATGGA | -0.229
AATCTCTG | -0.112
CCGGCTGC | -0.0585
CAATAAAA | 0.0116
ACTCAGAC | 0.0185
AGTACGGA | -0.135
ACAGCCCG | -0.0957
AAAACAGT | 0.0461
ATAGTCTC | -0.0338
AAAGCTTT | 0.0404
ACGCCTTG | -0.0342
AGTCTGAA | -0.204
ACACAGAG | 0.2
CCGTTATA | 0.0151

Sequence | PBM E-score
ACTGAGCC | -0.128
ATGCATTA | 0.0537
GATAGCAA | 0.031
AGGACAAT | -0.159
AGAGGAAA | 0.0488
CTGTAGAA | 0.191
CCAATTAA | 0.0473
AAAAACGG | 0.0004
AGTGTTAA | 0.264
AACTCCGA | 0.0093
ACTAACAG | 0.0357
GAGTCAGA | -0.0798
AAGCACAG | 0.0561
AACATTAT | 0.266
CAGATGTA | -0.0233
AAATGTAT | 0.188
CAAGCCGA | 0.165
GGTCTTCA | -0.318
TCTAGCCA | -0.064
CCCTTCGC | -0.254
ACTCCGGG | -0.248
GGGGATAA | -0.137
AAAGCAAC | 0.0484
AACAGTCG | -0.142
AGTCCACA | -0.11

Sequence | PBM E-score
AGCGCCTC | -0.33
CACTTCCA | -0.149
ACAGTATG | 0.057
CATATAAC | 0.136
ACCCCACT | -0.18
CGGGTTCA | -0.122
AAATATAT | 0.275
AACAACCG | 0.00436
ATCAACGA | 0.056
CAGGACAC | 0.0577
TATAATCA | 0.0993
CAAGAATC | 0.0746
CGCAAAAA | 0.196
TGCTGACA | -0.0498
CGCTACTA | -0.00039
GCCAAGTA | -0.0832
GACAATGA | 0.0225
ATCATATC | -0.0853
ATAGAGAT | 0.0964
GAGTGCCA | -0.376
GCAGCCGA | -0.128
GCGCTGTA | 0.029
GCACGAAA | 0.0734
ATTCGTGA | 0.0275
ACATTGCG | 0.159

Sequence | PBM E-score
AACACCCA | 0.0664
GGTCTGAA | -0.181
AGCCGATA | -0.205
ACTTACGG | -0.0618
ATGAGGCC | -0.174
GCTGTGGA | -0.152
ACAGACGG | -0.181
AAATGGCC | -0.265
CTTGACTC | -0.0373
CGGATGTA | 0.0737
AGGAGGCA | 0.382
GAATCGCC | -0.281
TTGGTAAA | 0.141
AGGCTTCC | -0.0116
CCCGTGAA | -0.184
TGATCTAA | 0.0633
GTAGAAAA | 0.207
GTATCACA | 0.0797
TTACAGAA | 0.106
AACATCAC | 0.249
GGAATCGA | -0.201
AGTCGTGG | -0.214
GAACAAAC | 0.193
ATACACAC | 0.326
CCGGGCCC | -0.165

Sequence | PBM E-score
AGTACCAA | 0.013
AGCACGTC | -0.0314
ACGGCGGA | -0.107
CAAAGGGA | -0.00904
TGCGTTAA | 0.259
CAAATTCC | -0.00736
CCATAGAA | -0.148
CACGGTTA | 0.183
GAATCACA | 0.0103
CCCCCTTA | -0.27
AGCTTGAC | -0.129
CCCTACTC | -0.108
AATCTACA | 0.349
AGTGACAC | 0.192
ACGAAGGG | -0.0163
TACTTTCA | 0.0677
CCGTCACA | -0.253
CAATCGTC | 0.0563
CTTACATA | 0.319
ACGTAGGC | 0.271
AGATACCG | 0.0845
ACCTTAGG | 0.178
